Measurements reported in the supplement of paper PMC4166925.
± gives the standard deviation of the averaged measurements. The full ranking holds about 33,000 sequences; the median of “E-score (dimensionless, -0.5 to 0.5)” is about -0.049, and the highest 2% start at about 0.37. The list shows a part of the results.

Tested on: T1, PmTbr T-box DNA-binding domain (GST fusion)
T1 sequence: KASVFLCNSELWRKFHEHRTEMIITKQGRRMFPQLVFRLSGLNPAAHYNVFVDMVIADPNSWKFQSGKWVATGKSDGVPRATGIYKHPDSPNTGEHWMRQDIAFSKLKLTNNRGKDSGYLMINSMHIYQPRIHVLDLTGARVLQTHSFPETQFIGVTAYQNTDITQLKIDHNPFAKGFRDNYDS
Assay: PBM E-score of 8-mer (E-score (dimensionless, -0.5 to 0.5)); Tbr is Tbrain of the sea star Patiria miniata (Pm) or the sea urchin Strongylocentrotus purpuratus (Sp); higher = stronger binding preference; most listed sequences are background and not binding sites
Conditions: the construct has about 5 more residues each side
Protocol: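 Universal protein-binding microarray (Agilent AMADID 016060, 60-bp probes with a 35-bp variable region) incubated with 200 nM GST-fused Patiria miniata Tbr T-box DNA-binding domain (residues 272-466) in PBS pH 7.5. Scored for every ungapped 8-mer (given with its reverse complement) by the Universal PBM Analysis Suite as E-score (modified Wilcoxon-Mann-Whitney enrichment, range -0.5 to 0.5; >0.45 counts as bound) and Z-score of median probe intensity. Two replicate arrays (datasets 1 and 2).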
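Note: 200 nM protein in PBS on universal arrays averaged over duplicate arrays.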

Point of comparison: CAGGATAC, “PBM E-score of 8-mer” value -0.146 ± 0.043. Against it:
- CAGCTGGG — within error, -0.0516 ± 0.054
- CTGCCGTC — higher, 0.0778 ± 0.055
- GAAATCCA — higher, -0.049 ± 0.033
- AGACTACC — within error, -0.237 ± 0.063
- ATCAAACC — within error, -0.0905 ± 0.066
- GCATAGCC — lower, -0.237 ± 0.0025
- AACGAGTA — within error, -0.105 ± 0.021
- CGTGGATA — within error, -0.109 ± 0.014
- AGCACACT — higher, 0.298 ± 0.0051
- ATCCAGTC — within error, -0.281 ± 0.099
- AAGCGGTC — higher, 0.0277 ± 0.061
- ACGTTCAG — within error, -0.0991 ± 0.042
- GCGGTACA — within error, -0.0609 ± 0.064
- ATCAGATC — within error, -0.152 ± 0.078
- CAATTGTA — higher, -0.0453 ± 0.032
- ACAACCCC — higher, 0.109 ± 0.018
- GATGGTAC — within error, -0.163 ± 0.0063
- CCTTAGCC — higher, 0.00468 ± 0.014
- TCTAAAGA — lower, -0.237 ± 0.015
- ACGGGCAC — within error, -0.059 ± 0.069
- AACCTTAT — within error, -0.243 ± 0.069
- ACTCCGGA — higher, -0.0374 ± 0.022
- AACGGATA — within error, -0.0672 ± 0.039
- CCAGTCAA — higher, 0.0172 ± 0.028
- AATAGATC — within error, -0.231 ± 0.086
- CGCGAGGC — higher, 0.289 ± 0.019
- ATGCGAAT — higher, 0.0955 ± 0.05
- AATAATGA — within error, -0.14 ± 0.007
- GAAAATGA — higher, 0.00688 ± 0.025
- AGACCAAG — within error, -0.0914 ± 0.04
- ACCGGTAC — within error, -0.115 ± 0.012
- GAATGCAA — within error, -0.15 ± 0.032
- CGATAAGC — higher, 0.124 ± 0.049
- TGGAGGAA — within error, -0.151 ± 0.042
- AGATAGGG — within error, -0.0901 ± 0.026
- CGATTCTA — within error, -0.14 ± 0.07
- CTGCCAAA — higher, 0.186 ± 0.061
- CTACCGCC — higher, -0.077 ± 0.015
- AAAAGTCC — within error, -0.161 ± 0.035
- AGTCCACT — within error, -0.155 ± 0.021
- AAGAAGGT — higher, -0.0225 ± 0.032
- AGAAGGCC — within error, -0.15 ± 0.032
- AAGAACGG — within error, -0.117 ± 0.048
- AAGTCATC — within error, -0.117 ± 0.05
- ATTGCAAG — higher, -0.00243 ± 0.039
- AAGGCTAT — within error, -0.148 ± 0.013
- AGGCAGAA — within error, -0.202 ± 0.015
- CCCGAAAG — higher, -0.022 ± 0.025
- CATGTGGC — higher, 0.0236 ± 0.011
- AGATCACA — higher, 0.278 ± 0.061
- CTAGCCGC — higher, 0.0347 ± 0.027
- CCACTTAC — higher, 0.201 ± 0.0076
- AGAGATCC — within error, -0.189 ± 0.011
- GGCGCGCC — higher, 0.233 ± 0.0099
- ACTACAAT — higher, -0.018 ± 0.002
- ATTTCCCA — higher, 0.0349 ± 0.076
- ATAACACG — higher, 0.325 ± 0.05
- AGGCATCC — lower, -0.291 ± 0.054
- GGAAGTTA — within error, -0.0847 ± 0.059
- AATCAAAC — higher, -0.0423 ± 0.03
- GGTTCATA — higher, 0.0267 ± 0.028
- CCCCCCGG — within error, -0.176 ± 0.025
- CTGTGAAG — higher, 0.266 ± 0.023
- CCCTGTGA — higher, 0.122 ± 0.013
- CCTGTTAC — higher, 0.164 ± 0.049
- CGAACAGC — higher, 0.0465 ± 0.011
- CGATCTAC — within error, -0.13 ± 0.012
- GTTGCTAA — higher, 0.285 ± 0.025
- CCAACAGG — higher, -0.00822 ± 0.0075
- CTATATAC — higher, 0.14 ± 0.028
- ACCTGATA — higher, 0.157 ± 0.032
- CCCGTTCA — higher, 0.0884 ± 0.064
- AAAGGGGG — within error, -0.209 ± 0.04
- TTGACAAA — higher, 0.329 ± 0.0096
- GGTACTAA — higher, -0.0102 ± 0.088
- ACAATCGT — higher, 0.00782 ± 0.055
- GTGGCTAA — higher, 0.0196 ± 0.032
- ACGATCCC — higher, 0.0437 ± 0.11
- CCAAGCGG — within error, -0.178 ± 0.068
- AGAGCAAG — within error, -0.0904 ± 0.043
- ACACGAGT — higher, 0.0609 ± 0.031
- CGTCCATA — higher, -0.0391 ± 0.017
- GCGGTATA — within error, -0.199 ± 0.11
- GGCCACCA — within error, -0.0619 ± 0.14
- CGGAATTA — within error, -0.203 ± 0.024
- AGAGCAGG — within error, -0.149 ± 0.13
- TATCGAGA — higher, -0.0253 ± 0.043
- ACAAGACT — higher, 0.0667 ± 0.0037
- CCCAGGGG — within error, -0.162 ± 0.093
- GGTAGCCA — within error, -0.139 ± 0.037
- GGTTGCGA — higher, 0.281 ± 0.031
- CGGGGTTA — within error, -0.195 ± 0.071
- AATGTTGC — higher, 0.0674 ± 0.052
- ATAGCAAT — higher, -0.0274 ± 0.049
- AAGTTGCG — higher, 0.235 ± 0.052
- CCCGCTCC — higher, -0.0513 ± 0.051
- CAGGCACG — within error, -0.104 ± 0.0019
- AGATTGGC — higher, 0.0392 ± 0.026
- AAGGCCGC — higher, 0.0907 ± 0.032
- CTTGATTA — higher, 0.00212 ± 0.086
- ATAGAGTG — higher, 0.0802 ± 0.04
- CTATATCA — higher, -0.0603 ± 0.035
- GGTGGACA — within error, -0.124 ± 0.0056
- AAATTCGG — lower, -0.27 ± 0.012
- AAAATGTA — higher, 0.135 ± 0.081
- ACGTTCGA — within error, -0.177 ± 0.025
- AGATGAAC — lower, -0.2425 ± 0.0013
- ATGACCAG — within error, -0.119 ± 0.011
- CTGTGTAA — within error, -0.116 ± 0.0057
- TAGGGAAA — within error, -0.173 ± 0.033
- AATCATAT — lower, -0.256 ± 0.0089
- AAGCCTCC — within error, -0.181 ± 0.047
- GTGACAAC — higher, 0.4452 ± 0.0036
- CTTTCATA — within error, -0.0852 ± 0.022
- AAAATAGG — higher, -0.0632 ± 0.036
- CCGGCGCC — higher, 0.188 ± 0.06
- GAGATGAA — within error, -0.168 ± 0.058
- GCTAGAGA — higher, 0.0101 ± 0.053
- ACGGTTCG — higher, 0.147 ± 0.043
- GAAAGACC — higher, -0.0227 ± 0.0037
- CGACTCTC — within error, -0.1842 ± 0.00057
- TACACAAA — higher, -0.0427 ± 0.021
- AACTACAC — higher, 0.169 ± 0.068
- CCGCCAAA — higher, 0.176 ± 0.012
- CCACCCAG — lower, -0.239 ± 0.032
- AATAGCTA — within error, -0.155 ± 0.065
- GCTCTTAA — lower, -0.281 ± 0.03
- GGGGTAGA — within error, -0.22 ± 0.073
- CCTGTGAA — higher, 0.306 ± 0.0045
- GTATGGAA — within error, -0.238 ± 0.057
- GATAGTCA — higher, 0.0183 ± 0.041
- ATCTATAA — higher, -0.0367 ± 0.0086
- AAAGCATA — within error, -0.036 ± 0.079
- CATATTCC — within error, -0.0721 ± 0.054
- CAGGTACA — within error, -0.15 ± 0.0089
- GGGCTCCA — lower, -0.348 ± 0.018
- ATGTACAC — within error, -0.148 ± 0.084
- CCCGGGGC — within error, -0.198 ± 0.11
- CCCTGACG — higher, -0.0465 ± 0.0053
- GAACCATC — within error, -0.106 ± 0.059
- CACGCGGA — higher, 0.0819 ± 0.038
- GCGGATAA — higher, -0.0267 ± 0.011
- AACTCAGT — lower, -0.226 ± 0.0079
- GACCAAAA — within error, -0.0705 ± 0.052
- ATTGGCTG — within error, -0.151 ± 0.0097
- GGATTCAC — higher, 0.116 ± 0.02
- AGGCCTCC — within error, -0.154 ± 0.012
- CGGCTCAA — lower, -0.267 ± 0.042
- TCACCTCA — higher, 0.437 ± 0.00059
- TATTGTAA — higher, 0.0639 ± 0.12
- AGCCCTAG — within error, -0.107 ± 0.038
- GCTAACCA — higher, 0.201 ± 0.04
- CGTGATGA — higher, 0.26 ± 0.025
- ATGCTAAT — higher, 0.0347 ± 0.061
- CATTAAAA — lower, -0.256 ± 0.028
- GGAGGCCC — lower, -0.437 ± 0.0096
- CGCCGGGC — higher, 0.0263 ± 0.062
- AAGTCGCT — higher, 0.202 ± 0.026
- GAGCTTAC — within error, -0.0863 ± 0.054
- CTTCGAGC — higher, 0.0317 ± 0.071
- AAAATCTC — higher, 0.00161 ± 0.011
- GCCAAGAC — higher, -0.0776 ± 0.0095
- CTGACCAC — higher, 0.0865 ± 0.013
- ATTCGCCA — higher, 0.197 ± 0.0034
- CCAAACTC — within error, -0.173 ± 0.0097
- AACGCTCG — higher, 0.0744 ± 0.0061
- CGACCTAC — within error, -0.13 ± 0.0019
- ACCCGCGC — higher, 0.122 ± 0.013
- GATGGGGC — lower, -0.271 ± 0.044
- GGCCTACA — within error, -0.189 ± 0.039
- AAAATCGC — higher, 0.23 ± 0.068
